Sequences with one replicate were seen in a single cluster, so their values are uncertain.
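Note: ATP exposure 15 min at 22 °C before imaging.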

This series concerns ATP. The series is described as follows: switch fluorescence ratio, 500 uM ATP over buffer (Cy3 cluster intensity, sum of 5 cycles each) (fold (ratio)); higher = stronger signal-on switching upon ATP binding; sequences stand for … in TCGTCGGCAGCGTCAGATGTGTATAAGAGACAGTTTTTTTTTTTTTTTTTTTTTTTTT…TC. The settings on record: aptamer strand: ATP DNA aptamer (quencher-CACCTGGGGGAGTATTGCGGAGGAAGG + anchor), 100 nM annealed; ATP concentration: 500 uM; one replicate. In short, it runs like this: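 Five buffer/ATP imaging cycles were run on Cy3-labelled switching-strand clusters on a modified Illumina MiSeq flow-cell, with NaOH stripping and re-annealing between cycles. In each cycle, clusters annealed to 100 nM quencher-labelled ATP aptamer were imaged in selection buffer, then after 15 min with 500 uM ATP at 22 °C. Per cluster, the fluorescence ratio is summed target-cycle over summed buffer-cycle Cy3 intensity, averaged per switch-domain sequence. Only clusters within 100-1000 RFU were kept.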
In the case of ATACATAAGA, the switch fluorescence ratio was determined as 1.04.
AAGGGCGTTG: the switch fluorescence ratio amounted to 0.999.
The value for GCGGAACTCG was 1.08.
ATGTATGATC: the switch fluorescence ratio is 1.02.
For AATATGGTTG, the switch fluorescence ratio worked out at 1.03.
The value for CTAATTGCTT was 0.964.
Take CGGATATCC: the switch fluorescence ratio worked out at 0.983.
Take CTCTGCCCAT: the switch fluorescence ratio is 1.37.
The value for CCAAGAAGGG was 1.01; that for TCATAATAGT was 1.02.
The result for CTAGATCTGC reads 0.988.
For the sequence GAGGAATGGG, the switch fluorescence ratio turned out to be 1.01.
The result for GCTACGGAGA reads 1.1; that for ACACCTGGCA, 1.11.
The value for GGGCAGTCGG was 0.967.
The result for CCCTGTGTAT reads 1.09; that for GCGGGGGGT, 1.01; that for ATAAAAGTGA, 0.985.
For the sequence CTGATTGTGC, the switch fluorescence ratio amounted to 0.99.
The value for TTGTTTGCAG was 0.959; that for TACCGCTCAG was 1.06; that for GCTACCGCA was 1.12.
Regarding TCGCGAGCCT, the switch fluorescence ratio came to 1.1.
The result for GGACTGCTAA reads 1.08.
The result for AATGTGATTG reads 1.01.
Turning to GCGGGGGGA, the switch fluorescence ratio came to 0.996.
The value for GACTAGGGTT was 0.993; that for ATGAAACTAG was 0.901.
On to ATAGCCCTAT, for which the switch fluorescence ratio came to 0.976.
In the case of TGTGAGCTTG, the switch fluorescence ratio came out at 1.01.
The result for ACCCGAGATC reads 0.969.
The result for CCTCAAAATG reads 1.08.
The value for AGACACGATC was 1.07; that for GCCGTGGTTG was 0.958; that for GAGTTGTCGT was 1.01.
Consider GATTAAGGCG, for which the switch fluorescence ratio stood at 1.04.
Regarding AGGGTAGCGC, the switch fluorescence ratio worked out at 1.
The result for TGTTGGACC reads 1.04; that for CGTATCCGGA, 1.08; that for AGAGAAGCAC, 1.1.
The value for ATCCACTCCC was 1.6.
The result for TACTAGCACG reads 1.16; that for GATGACTCCG, 1.19.
Take CCTTGGAGCC: the switch fluorescence ratio was determined as 1.1.
Take GCATGTTGCT: the switch fluorescence ratio was determined as 0.966.
The result for GGTGATGGCC reads 0.979; that for GTGTGGGCTT, 0.973; that for TATAGATCGG, 1.03.
The value for CCAAATGCGT was 1.
The result for AGCGCGTGCG reads 0.954; that for CGCCGTCCAC, 1.18.
CGGGCGCCTG: the switch fluorescence ratio was determined as 0.993.
AGGGTGGTTA: the switch fluorescence ratio worked out at 1.02.
The result for GGGCGTACGT reads 0.932; that for AATGATGTAT, 1.02.
The result for ACGCCTCGGC reads 1.03.
Turning to AGCGTAGTC, the switch fluorescence ratio turned out to be 0.969.
The value for ACGATTGCG was 1; that for TGGATATAA was 1.2; that for TATCAGACTG was 0.907.
The value for GACTGGAGTG was 1; that for GAGATACGTT was 0.945; that for CATATTTGGT was 0.976.
The value for TGTTGGATGT was 0.981; that for TTTTGACAGC was 1.04.
In the case of TGCAAGACAA, the switch fluorescence ratio was 1.17.
The value for CAGTCCAGT was 0.953; that for GTAACGGTTT was 1.
The value for AGCAGGTCTA was 1.05; that for TGTTTGACCC was 1.05; that for TGACACTCAC was 1.31.
The result for CCCCGCCCCG reads 1.89; that for GGGTGATTAG, 0.958.
AGGATTGCCT: the switch fluorescence ratio was found to be 0.965.
The result for AGGATTTAAT reads 0.966.
The value for GGGATTCTGA was 0.979; that for TCAACCCCTT was 0.993.
Take CGTGGTCATG: the switch fluorescence ratio was determined as 0.951.
Regarding CCATCCTTTA, the switch fluorescence ratio came to 1.02.
With TGCCGAGGCG, the switch fluorescence ratio stood at 0.958.
The result for GGTGATCAGG reads 0.959.
Consider GCGAAGATAG, for which the switch fluorescence ratio worked out at 1.03.
The value for TAGCACGAAT was 1.4.
In the case of AAATTGCCGA, the switch fluorescence ratio came out at 1.01.
The value for ATGCGTCGTA was 1.03; that for CGTCTTATTG was 0.964.
On to TTACAGTGCG, for which the switch fluorescence ratio is 0.983.
As for AAAAAAGACA, the switch fluorescence ratio was 1.02.
Take AACGCGGTCT: the switch fluorescence ratio came out at 1.01.
The value for TAAAGGCG was 1.03; that for TTATAGAAGT was 1.01; that for CCCATACAGC was 1.07.
Regarding AGCTTTGGAC, the switch fluorescence ratio was found to be 1.01.
TTTCGGTTCG: the switch fluorescence ratio turned out to be 1.02.
The result for AGAGCTTCTG reads 1.01.
The value for TCGGTGGTTT was 0.996; that for TGCACAGGCC was 1.03; that for GGCTTAGAAG was 1.04.
With GGCCCCTTTC, the switch fluorescence ratio worked out at 1.04.
As to ACAAGGGCGA, the switch fluorescence ratio stood at 0.992.
In the case of GGTAACTCAT, the switch fluorescence ratio is 0.958.
Regarding ACGTTTAGGA, the switch fluorescence ratio amounted to 0.968.
The value for CGGATGGGC was 0.961; that for TGCTGAACTT was 0.996; that for CATGTGGGAT was 1.02.
For GAGGGAGGC, the switch fluorescence ratio came to 1.14.
The result for GGGGAGCACC reads 1.05; that for TGAATCGGTT, 0.98.
The value for TGAGACCGGT was 0.932; that for CATGTTAAGT was 0.969.
As for GGTTCAGTGG, the switch fluorescence ratio came to 1.01.
The value for TTTTAATGTA was 0.981; that for GTTCTGGG was 1.01.
The result for GCAGTTAGAA reads 1.01; that for TCAATGGTCA, 1.03; that for GTGCGAAGGG, 1.06.
With GCTCCGATTA, the switch fluorescence ratio is 3.67.
The result for CAGGGACTCC reads 0.969; that for CACGGGAGA, 1.02.
On to AGAACGCATG, for which the switch fluorescence ratio is 1.02.

The values above are taken from the supplement of paper PMC10126150.
